Measured values published in PMC6919601, “Identification of Plasmodium dipeptidyl aminopeptidase allosteric inhibitors by high throughput screening” (PLoS ONE, 2019).
Where “and” joins values, the source holds several entries; their conditions need not be identical. Identical values can stand only once. About 230 (0.21%) of roughly 110,000 compounds showed an effect of 50% or more. Some of the results follow.

target: DPAP1 (Plasmodium falciparum, UniProt Q8IIJ9); experiment: primary screen, percent inhibition; read by cleavage of a fluorogenic dipeptide substrate; higher = more effect of the substance; parameters: species or system P. falciparum D10 trophozoite lysates; single well
Sequence (Q8IIJ9 whole entry, looked up): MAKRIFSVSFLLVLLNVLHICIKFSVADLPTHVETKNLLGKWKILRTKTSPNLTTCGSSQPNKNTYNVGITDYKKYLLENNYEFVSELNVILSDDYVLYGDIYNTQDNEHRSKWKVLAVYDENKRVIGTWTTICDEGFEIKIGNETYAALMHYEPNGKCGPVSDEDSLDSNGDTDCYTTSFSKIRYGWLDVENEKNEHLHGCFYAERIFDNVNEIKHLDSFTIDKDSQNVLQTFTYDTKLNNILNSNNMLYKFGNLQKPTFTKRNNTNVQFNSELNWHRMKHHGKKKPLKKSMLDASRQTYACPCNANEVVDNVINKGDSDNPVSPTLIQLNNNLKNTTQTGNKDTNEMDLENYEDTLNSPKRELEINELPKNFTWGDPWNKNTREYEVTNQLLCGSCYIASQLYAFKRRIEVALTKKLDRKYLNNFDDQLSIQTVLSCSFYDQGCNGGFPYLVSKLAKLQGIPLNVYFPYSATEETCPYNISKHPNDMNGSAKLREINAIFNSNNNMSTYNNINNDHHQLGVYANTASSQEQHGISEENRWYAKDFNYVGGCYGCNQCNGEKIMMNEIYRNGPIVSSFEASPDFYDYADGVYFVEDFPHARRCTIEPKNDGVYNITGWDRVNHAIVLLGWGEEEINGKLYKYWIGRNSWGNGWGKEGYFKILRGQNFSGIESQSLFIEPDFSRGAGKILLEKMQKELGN
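Note: 30 min substrate incubation versus DMSO and 10 µM JCP410 controls.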

SMILES | % Inhibition @ 10 uM
CC(NC(=O)C1CCN(c2nnc(N3CCCC3=O)s2)CC1)c1ccc2c(c1)OCCO2 (stereo not drawn) | 5.42%
COCCCNC(=O)C1CCN(S(=O)(=O)N2CCOCC2)CC1 | 0.718%
CSc1ccc(-c2nc(CSCC(=O)N(C)CCC#N)c(C)o2)cc1 | 5.56%
O=C(NCc1cccn1Cc1ccccc1)NCC1CCCO1 (stereo not drawn) | 2.98%
COc1cccc(C2C(C#N)=C(N)Oc3nc(C)nc(O)c32)c1OC (stereo not drawn) | 2.22%
CCN1CCc2c(sc(NC(=O)c3ccc(S(=O)(=O)N(CC)CC)cc3)c2C(=O)OC)C1 | -4%
COc1ccc(Cl)c(Cn2c(NCCCO)nc3c2c(=O)n(C)c(=O)n3C)c1 | 5.06%
Cc1ccc2c(c1)-c1onc(C(=O)NCCCN(Cc3ccco3)C3CCCC3)c1CO2 | -2.87%
CCN(CC)c1ccc(Nc2nc(-c3sc(C)nc3C)cs2)cc1 | 1%
CCN1C=CC(=Cc2ccc3cc(C)ccc3[n+]2C)C=C1 | -3.75%
CCOc1ccc(S(=O)(=O)Nc2cccnc2O)cc1 | -5.17%
COc1ccc(CCN2C(=O)NC(NC(=O)CC(C)C)(C(F)(F)F)C2=O)cc1OC (stereo not drawn) | 3.54%
CC(C)N(CCNC(=O)[C@H](Cc1cc(I)c(O)c(I)c1)NC(=O)c1ccc(-c2csc(Nc3ccncc3)n2)cc1)C(C)C | 3.1% and 4.63%
Cc1ccc(C)n1-c1nnc(N2CCC(C(=O)NCCC3=CCCCC3)CC2)s1 | 4.33%
CCCCN(C)C(=O)CCNS(=O)(=O)c1ccc(Br)cc1 | 1.42%
NC(=O)c1ccc(-n2nnnc2-n2ccnc2)cc1 | 2.77%
Cc1cc(Oc2nc3ccccn3c(=O)c2/C=C(\C#N)C(=O)N2CCOCC2)ccc1Cl | -8.55%
CCN1CCN(Cc2cc(Br)cs2)CC1 | -0.0404%
COc1ccc(COC(=O)C2=C(C)NC(=O)CC2c2ccccc2C(F)(F)F)cc1 (stereo not drawn) | -1.62%
O=C(CCc1nnc2ccc(N3CCOCC3)nn12)NC1CCN(Cc2ccccc2)CC1 | -7.74%
COC(=O)c1cc2nc(-c3ccccc3)cc(C(F)(F)F)n2n1 | -2.36%

SMILES | % Inhibition @ 10 uM
O=C(CCc1nc(-c2ccc(Cl)cc2)no1)NCC1CCCO1 (stereo not drawn) | 0.366%
COc1ccc(C2C=C(c3ccccc3OC(F)F)Nc3nnnn32)cc1 (stereo not drawn) | -6.93%
COc1cc(CN2CCN(Cc3ccccc3Cl)CC2)cc(OC)c1 | -3.03%
CCC(C)(C)NC(=O)CN(C)S(=O)(=O)c1cccc2cccnc12 | -0.692%
O=S(=O)(NC1CCCCC1N1CC=C(c2ccccc2)CC1)c1ccccc1 (stereo not drawn) | -0.671%
Cc1cccc(CCNC(=O)C2c3ccccc3C(=O)N(C)C2c2cn(C)c3ccccc23)c1 (stereo not drawn) | -1.92%
CN1CCN(CCCNC(=O)CCCn2nc(-c3ccccc3)c3ccccc32)CC1 | -4.85%
CC(=O)Nc1cccnc1NC(C)=O | -1.03%
N#Cc1cnn2c(O)c3c(nc12)CCCC3 | 1.52%
O=C1c2cccc3c(O)ccc(c23)C(=O)N1Cc1ccccc1 | -1.35%
CC(C)S(=O)(=O)C1=NSC2=NC(=O)/C(=C\c3ccc(SCc4ccco4)o3)C(=N)N21 | 3.77%
Cc1ccnc(SCC(=O)N2N=CCC2c2ccccc2)n1 (stereo not drawn) | -0.958%
Cc1ccc(OCCn2cnc3ccccc32)cc1 | -1.37%
Cc1cc(C)cc(NC(=O)CN(Cc2ccccc2)S(C)(=O)=O)c1 | -3.34%
COc1cc(-c2cc(C(F)(F)F)n3ncc(C(=O)NCc4ccco4)c3n2)cc(OC)c1OC | -3.92%
Cc1ccc(C2=NS(=O)(=O)N(C)C(C(=O)Nc3cc(C)nn3-c3ccccc3)=C2)cc1 | -4.68%
O=C(CCC1CCCC1)Nc1cccc2cccnc12 | 4.44%
O=C(O)CCCNc1ccc(S(=O)(=O)Nc2ccccc2)cc1 | -4.02%
Cn1c(C(=O)N2CCCC(C(=O)NCCc3ccc(S(N)(=O)=O)cc3)C2)cc2sccc21 (stereo not drawn) | -2.84%
COCCNc1nc2ccccc2c2nc(-c3cccnc3)nn12 | -4.21%
CCOC(=O)c1c(NC(N)=O)sc2c1CCCCC2 | 14.1%

SMILES | % Inhibition @ 10 uM
Cc1nc2nc(C)c(CCC(=O)NCc3ccco3)c(C)n2n1 | 1.26%
CCN1C=C(C(=O)OC)C(c2ccccc2Cl)C(C(=O)OC)=C1 | 0.238%
COc1cc(C(=O)N(C)C2CCCCC2)cc(OC)c1OC | 1.35%
O=C1C2C3C=CC(C4CC34)C2C(=O)N1CCO (stereo not drawn) | -1.96%
Cn1c(=O)c2c(-c3ccccc3Cl)n(CCO)cc2n(C)c1=O | 2.02%
CN(C)CCNC(=O)CCCNC(=O)Cn1cnc2sc3c(c2c1=O)CCCC3 | -2.51%
O=S(=O)(c1ccc(-c2cc(C(F)(F)F)no2)s1)N1CCOCC1 | 1.56%
CCOc1cc(C2C3=C(O)CC(C)(C)CC3=NC3=C2C(=O)CC(C)(C)C3)cc(Br)c1O (stereo not drawn) | 1.82%
O=C(c1cccnc1)N(C1CCCCC1)C1CCCCC1 | 1.28%
O=C(CCNc1c(N2CCCC2)c(=O)c1=O)NCCc1ccccc1 | -1.72%
CCOC(=O)C1=C(CNCCc2cc(OC)c(OC)c(OC)c2)NC(=O)NC1c1ccccc1 (stereo not drawn) | -3.1%
Cc1cccc(COc2ncnc3[nH]cnc23)c1 | -4.97%
CCCCCOC(=O)c1ccc2c(c1)C(=O)N(C1CCCCC1)C2=O | -5.08%
Cc1ccc(S(=O)(=O)N2CCOCC2)cc1C(=O)N1c2ccccc2Sc2ccccc21 | -1.84%
CS(=O)(=O)c1ccc2nc(NC(=O)CN3CCC(Cc4ccccc4)CC3)sc2c1 | -2.9%
COc1ccc(NC(=O)c2cc(OC)cc(OC)c2)cc1 | -10.1%
CCOc1ccc(C(=O)Nc2ccc(F)cc2F)cc1 | 3.27%
COCCCNC(=O)c1ccc2c(c1)ncn2-c1cc(Cl)ccc1OC | 2.6%
CCCCCCN1CC(=O)C(c2nc3ccccc3s2)=C1N | 2.14%
CCC(Oc1ccccc1)C(=O)NC1CCCC1 (stereo not drawn) | 4.75%
CCOc1cccc(-c2nc(O)c3c(n2)Oc2ccccc2C3)c1 | 5.48%
